# Reference: the supplement of paper PMC9174493
# Where a name gives a salt, the structure may show the parent alone. This is one part of the list. Single values of this set are uncertain. Values with irradiation are relative to irradiated vehicle.
# Test system: A549-Dual
# Assay: NF-kB reporter (SEAP) activity, viability-corrected, relative to vehicle (fold change vs vehicle); higher = more activation of STING-IRF / NF-kB immune response reporter
# Settings: 10 µM; irradiation: none
# 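Further: viability correction based on the alamar blue assay, with concentrations leaving 10% survival or less dropped.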
row,SMILES,NF-kB reporter
1,CC(NCCCc1cccc(C(F)(F)F)c1)c1cccc2ccccc12.Cl (stereo unspecified) [Cinacalcet HCl],0.876
2,O=C(NC1CCN(CCCCC2(C(=O)NCC(F)(F)F)c3ccccc3-c3ccccc32)CC1)c1ccccc1-c1ccc(C(F)(F)F)cc1 [Lomitapide],0.806
3,CSCCNc1nc(SCCC(F)(F)F)nc2c1ncn2C1OC(COP(=O)([O][Na])OP(=O)([O][Na])C(Cl)(Cl)P(=O)([O][Na])[O][Na])C(O)C1O (stereo unspecified) [Cangrelor Tetrasodium],1.49
4,NC(CCC(=O)[O][Na])C(=O)O [L-Glutamic acid monosodium salt],0.79
5,CCCC1CC(C(=O)NC(C(C)Cl)C2OC(SC)C(OP(=O)(O)O)C(O)C2O)N(C)C1 (stereo unspecified) [Clindamycin Phosphate],0.998
6,CC(=O)N[C@@H](Cc1ccc(O)cc1)C(=O)O [N-Acetyl-L-tyrosine],0.97
7,COc1cc(S(=O)(=O)[O-])ccc1O.[K+] [Sulfogaiacol],0.796
8,CCC(C)(C)C(=O)OC1CC(C)C=C2C=CC(C)C(CCC3CC(O)CC(=O)O3)C21 (stereo unspecified) [Simvastatin],2.25
9,COC1C(OC(C)=O)CC(=O)OC(C)C/C=C/C=C/C(O)C(C)CC(CC=O)C1OC1OC(C)C(OC2CC(C)(O)C(OC(=O)CC(C)C)C(C)O2)C(N(C)C)C1O (stereo unspecified) [Josamycin],0.895
10,CCCCCCCCCCCC(=O)O [Lauric Acid],0.955
11,CC1=CC(=O)CC(C)(C)C1(O)/C=C/C(C)=C\C(=O)O (stereo unspecified) [Abscisic Acid (Dormin)],0.753
12,CC(NC(=NC#N)Nc1ccncc1)C(C)(C)C.O (stereo unspecified) [Pinacidil],0.835
13,O=C([O-])CC(O)CC(O)C=Cc1c(C2CC2)nc2ccccc2c1-c1ccc(F)cc1.O=C([O-])CC(O)CC(O)C=Cc1c(C2CC2)nc2ccccc2c1-c1ccc(F)cc1.[Ca+2] (stereo unspecified) [Pitavastatin Calcium],2.72
14,OCC1OC(O)C(O)C(O)C1O [D-Mannose],1.19
15,Cc1ncc(COP(=O)(O)O)c(C=O)c1O.O [Pyridoxal 5-phosphate monohydrate],0.623
16,CC1(C)SC2C(NC(=O)C(NC(=O)N3CCN(S(C)(=O)=O)C3=O)c3ccccc3)C(=O)N2C1C(=O)[O-].[Na+] (stereo unspecified) [Mezlocillin Sodium],1.11
